# Experimental data from the supplement of paper PMC3724861.
# The list shows a part of the results.
# System: T1, Caupolican (Caup) homeodomain DNA-binding domain
# T1 sequence: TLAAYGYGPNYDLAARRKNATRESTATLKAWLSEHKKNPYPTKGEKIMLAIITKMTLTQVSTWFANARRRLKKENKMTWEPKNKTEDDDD
# Test: PBM E-score (8-mer, recovered from the published 9-mer minima) (E-score (dimensionless, -0.5 to 0.5)); Drosophila protein; higher = stronger relative binding preference, active = 0.31 or more
# Procedure, shortened: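 Caup's homeodomain DNA-binding domain (residues 214-303) was made by in vitro transcription and translation and applied at 100 nM to custom-designed protein binding microarrays. Each value is an enrichment score that gives relative binding preference for a short DNA word, with higher meaning stronger. The 8-mer values were recovered from published 9-mer scores, each of which was the minimum of its two constituent 8-mer scores. A cutoff of 0.31 marks candidate sites.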
row,Sequence,PBM E-score
1,ACTCGTCA,inactive: 0.0815
2,ACTCCATC,inactive: -0.034
3,AGTGTCAG,inactive: 0.0798
4,AAGTTAGG,inactive: 0.0319
5,TACTGGAA,inactive: 0.0439
6,GACTCTAC,inactive: -0.0496
7,ATGGATGC,inactive: 0.0819
8,CAGTACTG,inactive: -0.0376
9,ATTAACCG,inactive: -0.0355
10,CAATTTCA,inactive: 0.0522
11,AAAATACG,inactive: 0.0692
12,CGGTCTAG,inactive: -0.115
13,GGAGGGCA,inactive: -0.116
14,CAATCGTA,inactive: 0.114
15,GTCCTAAC,inactive: 0.0667
16,CACAGCGC,inactive: -0.0681
17,ATCCAAAG,inactive: 0.12
18,CGCCGCCG,inactive: -0.225
19,AAGGGGGG,inactive: -0.4
20,ACTAGGGC,inactive: -0.0894
21,CGCCATGC,inactive: -0.15
22,ATATAATA,≥ 0.259
23,CACGCGTC,inactive: 0.0565
24,GGGTAACA,inactive: 0.216

row,Sequence,PBM E-score
1,AGAGGTCA,inactive: -0.0303
2,CGCCGTGA,inactive: -0.0603
3,CACGGGGC,inactive: -0.172
4,GGACCTAA,inactive: -0.057
5,GGTGTGGA,inactive: -0.0814
6,CATTCACG,inactive: -0.0298
7,CGCCTTAA,inactive: -0.0449
8,CGTGGAAG,inactive: -0.0419
9,GGGGGACA,inactive: -0.134
10,CCCTTAAC,inactive: -0.127
11,AGACCCTC,inactive: -0.189
12,ATCACTTC,inactive: 0.111
13,CACGGGCA,inactive: -0.0674
14,ATTCCCCA,inactive: -0.0404
15,GGTTATCA,inactive: 0.0986
16,AACTTTGT,inactive: 0.17
17,CTTCTGGC,inactive: -0.136
18,CAGTAACC,inactive: -0.0276
19,ACGACGGG,inactive: -0.122
20,CTCATGCC,inactive: -0.129
21,AGCGAGAC,inactive: -0.0966
22,CTTTTGTA,inactive: 0.217
23,CCAGGCAA,inactive: -0.0864
24,CTGCACCA,inactive: -0.19

row,Sequence,PBM E-score
1,CCTAGTAC,inactive: 0.184
2,TGCAACCA,inactive: 0.0472
3,GTGGTGAA,inactive: -0.0583
4,CCTGGACA,inactive: 0.0418
5,CATTGCGA,inactive: 0.0289
6,AGTTCCTG,inactive: -0.0927
7,CGTTCAAA,inactive: -0.0536
8,CCTCTTAC,inactive: -0.0603
9,AATCTGAT,≥ 0.18
10,TGGCTCAA,inactive: -0.14
11,CAGCGTCA,inactive: -0.161
12,CCAGGTCA,inactive: -0.0785
13,AGCAAACA,inactive: 0.219
14,GGGTTAAC,inactive: -0.0133
15,CATTGAGA,inactive: 0.00083
16,GGATTCCC,inactive: -0.176
17,ACTACCTA,inactive: 0.0763
18,GGTTTGCA,inactive: 0.0165
19,AGCTTGGG,inactive: -0.153
20,CGACGAAG,inactive: -0.0422
21,CTATAGAC,inactive: 0.0171
22,GTGTAGAA,inactive: 0.276
23,GCTCTGCC,inactive: -0.26
24,CCCTAGCA,inactive: -0.147

row,Sequence,PBM E-score
1,CCAGAACC,inactive: -0.0196
2,CCAAAGCA,inactive: -0.072
3,AATTACCC,inactive: -0.0159
4,AACCATTG,inactive: 0.00918
5,ATCCTTGC,inactive: -0.0799
6,GAAATGAA,inactive: 0.0795
7,CAGAATGA,inactive: 0.0488
8,CACCCCGA,inactive: -0.104
9,TGTTCTAA,inactive: 0.183
10,AACGGGAC,inactive: -0.137
11,ATCCTCGC,inactive: -0.15
12,CGCGCGCA,inactive: -0.138
13,GCACGTCC,inactive: -0.0893
14,ACCCGGGC,inactive: -0.196
15,ATAAGCAG,inactive: 0.0243
16,AAGTTACT,inactive: 0.0883
17,GTTGACCA,inactive: -0.0437
18,CCTAGAGG,inactive: -0.144
19,CGTACGGA,inactive: 0.0187
20,ACTATACC,inactive: 0.0953
21,GTGTGCTA,inactive: 0.0438
22,ATAACACC,inactive: 0.277
23,AATGAAAG,inactive: 0.0121
24,AGCGAGTG,inactive: -0.0342

row,Sequence,PBM E-score
1,TCAATACA,inactive: 0.235
2,GAGCGTCA,inactive: -0.0974
3,CGGTATGA,inactive: 0.0746
4,GAGCGAAC,inactive: -0.0727
5,AGCCGAGC,inactive: -0.27
6,CATGCGTC,inactive: 0.0489
7,ATATCTCG,inactive: 0.0306
8,AGGGTAGC,inactive: -0.121
9,AGATTAAG,inactive: 0.0165
10,GGGTGAAA,inactive: 0.0133
11,GGTGTCTA,inactive: 0.169
12,AGAGCACC,inactive: -0.17
13,ATTAACTC,inactive: 0.0863
14,GCCGTGAA,inactive: -0.0891
15,TGGCGCAA,inactive: -0.194
16,AGTCGACG,inactive: 0.0176
17,AAAAAAGA,inactive: -0.0444
18,ACGTGATA,inactive: 0.134
19,TCACCGAA,inactive: 0.0363
20,AATTAGCA,inactive: 0.138
21,CTACTCGA,inactive: 0.0537
22,AATAAACC,inactive: 0.0785
23,TCGCCAGA,inactive: -0.115
24,ATTAACGC,inactive: -0.015

row,Sequence,PBM E-score
1,ACATAAAC,inactive: 0.287
2,AGCGGACA,inactive: 0.0209
3,AAGTGTTA,inactive: 0.218
4,ACCGAAAG,inactive: -0.0307
5,AGACAGCA,inactive: -0.00319
6,CATACTCG,inactive: -0.0067
7,ACACGAGA,inactive: 0.216
8,CAGTCCAA,inactive: -0.0567
9,CGCCCGAC,inactive: -0.13
10,AAATGGTT,inactive: 0.101
11,AATATAAC,inactive: 0.176
12,ATGAAGTC,inactive: 0.0064
13,TAAGCATA,inactive: 0.0961
14,AATCCACG,inactive: -0.0597
15,GTAGGATA,inactive: 0.0559
16,ACGAGAAG,inactive: -0.0159
17,CTAGTACC,inactive: 0.201
18,ATGGCAGA,inactive: -0.0192
19,ATTGATCG,inactive: 0.0888
20,AAACTGCG,inactive: -0.101
21,ATGCGCGG,inactive: -0.101
